{"source": "PubChem BioAssay AID485360", "about": "(National Center for Advancing Translational Sciences (NCATS), 2010)", "note": "The campaign covered roughly 230,000 compounds. About 1,500 (0.65%) were called active. Inconclusive means that the source gave no clear call. Such entries were picked first, then a sample of the others. The call rests on the fitted dose curve; in most records, active means well fitted inhibition curve with a large enough effect; inconclusive means small, poorly fitted or top-dose-only effect; inactive means no such curve, though single readings can be large or run the other way. Potencies beside an inconclusive call are fits to weak or partial responses and may not hold up. On the % scale 0 is the no-effect control and ±100 the full control effect; potency means the concentration at half of the fitted maximal effect; tags describe the fitted curve by direction and shape.", "data": [{"target": "Lethal(3)malignant brain tumor-like protein 1 (Homo sapiens) (UniProt Q9Y468)", "sequence (Q9Y468 whole entry, looked up)": "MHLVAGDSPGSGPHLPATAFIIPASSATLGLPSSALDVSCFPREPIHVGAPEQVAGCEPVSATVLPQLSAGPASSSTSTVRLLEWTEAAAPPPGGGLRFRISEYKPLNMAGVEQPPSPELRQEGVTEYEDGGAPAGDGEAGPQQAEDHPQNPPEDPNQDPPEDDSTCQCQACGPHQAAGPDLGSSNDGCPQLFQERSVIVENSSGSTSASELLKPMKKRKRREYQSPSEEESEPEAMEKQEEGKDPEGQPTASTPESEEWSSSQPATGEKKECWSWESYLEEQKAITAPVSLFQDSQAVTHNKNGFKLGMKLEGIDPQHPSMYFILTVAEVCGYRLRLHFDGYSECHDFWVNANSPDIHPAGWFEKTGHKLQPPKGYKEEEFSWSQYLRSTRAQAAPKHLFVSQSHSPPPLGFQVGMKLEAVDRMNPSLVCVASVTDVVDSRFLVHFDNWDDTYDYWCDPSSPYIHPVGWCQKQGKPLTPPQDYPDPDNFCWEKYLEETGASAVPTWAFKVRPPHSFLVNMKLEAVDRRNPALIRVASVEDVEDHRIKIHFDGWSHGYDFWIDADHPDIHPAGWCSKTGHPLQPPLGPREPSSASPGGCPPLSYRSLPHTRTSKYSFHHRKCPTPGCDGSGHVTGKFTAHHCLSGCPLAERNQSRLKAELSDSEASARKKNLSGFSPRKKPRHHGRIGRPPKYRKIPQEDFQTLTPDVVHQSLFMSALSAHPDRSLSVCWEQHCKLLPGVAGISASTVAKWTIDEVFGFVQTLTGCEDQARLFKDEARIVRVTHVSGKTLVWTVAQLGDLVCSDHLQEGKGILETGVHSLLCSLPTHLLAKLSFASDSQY", "assay": "qHTS Assay for the Inhibitors of L3MBTL1; further: nearly all actives have a fitted effect of over 60% in size", "conditions": "AlphaScreen L3MBTL1–H3K9me1 peptide binding; activity, negative = inhibition: at 57.1 µM (top of the series)", "text": "The histone code is comprised of many post-translational modifications that occur mainly in histone tail peptides. The identity and location of these marks are read by a variety of histone binding proteins that are emerging as important regulators of cellular differentiation and development and are increasingly being implicated in numerous disease states. Small molecule probes that disrupt the interaction between histone binding proteins and chromatin would enable a systematic chemical biology study of proteins that read the histone code and could potentially reveal new targets for drug discovery. However, no such small molecules are known. This dearth of quality molecular probes can largely be attributed to the novelty of the target class and the lack of screening assays. This proposal details the development of the first high-throughput screening assay for the discovery of inhibitors of methyl-lysine binding proteins and how it can be be used to initiate a full-scale discovery effort for antagonists of histone binding proteins. Specifically, this work focuses on an AlphaScreen(tm)-based HTS assay for Malignant Brain Tumor (MBT) domain-containing proteins, which bind to the lower methylation states of lysine residues present in histone tail peptides.\nTo each well, 2 uL of L3MBTL1 protein (final 50 nM) and 1 uL biotinylated histone peptide monomethylated at Lys9 [b-AHA-H3(1-15)K9me1] (final 75 nM) was added using a nanoliter dispenser. Formation of a protein-peptide complex proceeded at room temperature for 30 min. A Kalypsys pin-tool was employed to transfer 23 nL of library compound solution in DMSO to each well. Cefsulodin, found in a pilot screen of the LOPAC library to be a weak inhibitor of L3MBTL1 binding, was used as an intraplate control with a 16-point titration in duplicate. Following a 30 min incubation of the protein-peptide complex with compounds at room temperature, a mixture of 40 ug/mL each streptavidin-coated donor and nickel chelate acceptor AlphaScreen beads (final 10 ug/mL) was added in a 1 uL dispense for a final volume of 4 uL. Plates were incubated, protected from the light for 30 min at room temperature. Microplates were then be read on an EnVision multilabel plate reader using the 1,536 plate HTS AlphaScreen aperture (excitation time 80 ms, measurement time 240 ms).", "values": [{"smiles": "O=C(c1cc2ccccn2n1)N1CCC2(CC1)OCCO2", "Potency": "inconclusive: 6.31 µM [inhibitor, single point]"}, {"smiles": "Fc1ccccc1CNCCc1ccc2c(c1)OCO2", "Potency": "inactive"}, {"smiles": "Cn1cc(C(=O)OCC(=O)Nc2ccccc2Cl)c2ccccc21", "Potency": "inactive"}, {"smiles": "Cc1cc(/C=C2\\C(=O)NC(=O)N(c3ccccc3)C2=O)c(C)n1-c1ccc(C(=O)O)c(Cl)c1", "Potency": "inconclusive: 31.6 µM [inhibitor, single point]"}, {"smiles": "COC(=O)c1ccc(COc2cc(C)cc3oc(=O)c4c(c23)CCCC4)o1", "Potency": "inactive"}, {"smiles": "COc1ccc(-c2nc(NC(=O)Cn3c(=O)oc4ccccc43)sc2C)cc1", "Potency": "inconclusive: 6.31 µM [inhibitor, single point]"}, {"smiles": "COc1cc(N2CCOCC2)ccc1/C=C1\\C(=O)NC(=O)N(C2CCCCC2)C1=O", "Potency": "inconclusive: 0.708 µM [inhibitor, single point]"}, {"smiles": "O=[N+]([O-])c1cc([As](=O)(O)O)ccc1O", "Potency": "inconclusive: 35.5 µM [inhibitor, single point]"}, {"smiles": "CC1CCN(CC(=O)c2ccccc2Cl)CC1", "Potency": "inactive"}, {"smiles": "Cc1c(N=Cc2c(O)n(Cc3ccco3)c(=O)[nH]c2=O)c(=O)n(-c2ccccc2)n1C", "Potency": "inconclusive: 31.6 µM [inhibitor, single point]"}, {"smiles": "COc1ccc(OCC(=O)N2CCN(C(C)C)CC2)cc1", "Potency": "inconclusive: 6.31 µM [inhibitor, single point]"}, {"smiles": "N[C@@H](Cc1cc(Br)c(O)c(Br)c1)C(=O)O", "activity, negative = inhibition": "inconclusive: -80.8% [inhibitor]"}, {"smiles": "CN(C)c1ccc(/C=C2/C(=O)NC(=O)N(Cc3ccco3)C2=O)cc1", "Potency": "inconclusive: 28.2 µM [inhibitor, single point]"}, {"smiles": "CC[n+]1c(/C=C/C=C/c2ccc(N(C)C)cc2)sc2ccccc21", "Potency": "inconclusive: 39.8 µM [inhibitor, single point]"}, {"smiles": "COCCN(CCOC)C(=O)CCn1c(=O)oc2ccccc21", "Potency": "inconclusive: 7.08 µM [inhibitor, single point]"}, {"smiles": "Cc1c(N=Nc2c(O)n(Cc3ccccc3)c(=O)[nH]c2=O)c(=O)n(-c2ccccc2)n1C", "Potency": "inconclusive: 35.5 µM [inhibitor, single point]"}, {"smiles": "COc1ccc2c3c([nH]c2c1)C(C)=NCC3", "Potency": "inactive"}, {"smiles": "O=C(O)CCn1cc(C=C2C(=O)NC(=S)NC2=O)c(-c2ccccc2)n1", "Potency": "inconclusive: 0.398 µM [inhibitor, full curve, poor fit]"}, {"smiles": "CCC(C)N1C(=O)/C(=C/c2ccc3c(c2)CCN3CCCCl)C(=O)NC1=S", "note": "(centres undefined)", "Potency": "inconclusive: 31.6 µM [inhibitor, single point]"}, {"smiles": "CCOC(=O)c1ccc(NC(c2ccc(N(C)C)cc2)P(=O)(OC(C)C)OC(C)C)cc1", "note": "(centres undefined)", "Potency": "inconclusive: 0.355 µM [inhibitor, full curve]"}, {"smiles": "CC1CCN(CC(=O)c2ccc3c(c2)OCCO3)CC1", "Potency": "inactive"}, {"smiles": "O=C1NC(=O)N(c2ccccc2F)C(=O)/C1=C/c1ccc(Sc2nc3ccccc3[nH]2)o1", "Potency": "inconclusive: 39.8 µM [inhibitor, single point]"}, {"smiles": "O=C1NC(=O)N(c2ccccc2)C(=O)/C1=C/c1ccoc1", "Potency": "inconclusive: 31.6 µM [inhibitor, single point]"}, {"smiles": "CCCCn1c(=O)c(C(=O)NCc2ccccc2OC)c(O)c2ccccc21", "activity, negative = inhibition": "inconclusive: -48.3% [inhibitor]"}, {"smiles": "CC[N+](C)(CC)CCCOC(=O)C(O)(c1ccccc1)C1CCCCC1", "note": "(centres undefined)", "Potency": "inactive"}, {"smiles": "Cc1ccc(N2C(=O)NC(=O)/C(=C/c3ccc(OC(=O)c4cccs4)cc3)C2=O)cc1", "Potency": "inactive"}, {"smiles": "COc1ccc(Cn2c(N)c(C(=O)NCc3ccco3)c3nc4ccccc4nc32)cc1OC", "Potency": "inactive"}, {"smiles": "O=C1NC(=O)N(c2ccccc2)C(=O)/C1=C\\c1ccc2c3c(cccc13)CC2", "Potency": "inactive"}, {"smiles": "CCn1c(O)c(C=Nc2ccc(N3CCOCC3)cc2)c(=O)n(CC)c1=S", "Potency": "inactive"}, {"smiles": "CCC1(C)OC(c2ccccc2)=C/C(=C/C=C2C(=O)NC(=O)NC2=O)O1", "note": "(centres undefined)", "Potency": "inconclusive: 2 µM [inhibitor, full curve]"}, {"smiles": "CCCCn1c(CN2CCN(c3ccc(F)cc3)CC2)nc2c1c(=O)n(C)c(=O)n2C", "Potency": "inconclusive: 39.8 µM [inhibitor, single point]"}, {"smiles": "CC(=NCCN1CCCCC1)c1c(O)n(Cc2ccccc2)c(=O)[nH]c1=O", "Potency": "inactive"}, {"smiles": "N#CC1=C(N)Oc2c(c(=O)oc3ccccc23)C1c1ccc([N+](=O)[O-])o1", "note": "(centres undefined)", "Potency": "inconclusive: 31.6 µM [inhibitor, single point]"}, {"smiles": "Cc1ccccc1N1C(=O)NC(=O)/C(=C\\c2ccc3c(c2)CCCN3Cc2ccccc2)C1=O", "Potency": "inconclusive: 35.5 µM [inhibitor, single point]"}, {"smiles": "Cc1cc(N2C(=O)CC(N3CCC(n4c(=O)[nH]c5ccccc54)CC3)C2=O)no1", "note": "(centres undefined)", "Potency": "inconclusive: 3.55 µM [inhibitor, single point]"}, {"smiles": "O=C1Nc2ccccc2Sc2ccccc21", "Potency": "inconclusive: 0.562 µM [inhibitor, single point]"}, {"smiles": "O=C(O)C(Cc1cnc[nH]1)NS(=O)(=O)c1ccc(Cl)cc1", "note": "(centres undefined)", "Potency": "inactive"}, {"smiles": "CCOc1cc(C=C2C(=O)NC(=O)NC2=O)cc([N+](=O)[O-])c1O", "Potency": "inconclusive: 22.4 µM [inhibitor, single point]"}, {"smiles": "Cc1c(N=Nc2c(O)[nH]c(=S)[nH]c2=O)c(=O)n(-c2ccccc2)n1C", "Potency": "inconclusive: 22.4 µM [inhibitor, single point]"}, {"smiles": "CC(C)N1C(=O)/C(=C/C=C/c2ccco2)C(=O)N(Cc2ccco2)C1=O", "Potency": "active: 31.6 µM"}, {"smiles": "O=c1c2ccccc2nc(-c2ccccc2)n1-c1ccccc1", "Potency": "inactive"}, {"smiles": "COc1ccccc1CN1CCN(Cc2ccc(Cl)cc2)CC1", "Potency": "inactive"}, {"smiles": "CCN(CC)c1ccc(/C=C2/C(=O)NC(=O)N(CC3CCCO3)C2=O)cc1", "note": "(centres undefined)", "Potency": "inconclusive: 39.8 µM [inhibitor, single point]"}, {"smiles": "CC1(C)OC(c2ccccc2)=C/C(=C/C=C2C(=O)NC(=S)NC2=O)O1", "Potency": "inconclusive: 15.8 µM [inhibitor, partial curve]"}, {"smiles": "Cc1cc(/C=C2\\C(=O)NC(=O)N(c3ccc(F)cc3)C2=O)c(C)n1-c1ccc(C(=O)O)cc1", "Potency": "inconclusive: 31.6 µM [inhibitor, single point]"}, {"smiles": "O=C(O)CC1OCC=C2CN3CCC45C6=CC(=O)C(=O)C([N+](=O)[O-])=C6NC4C1C2CC35", "note": "(centres undefined)", "Potency": "active: 25.1 µM"}, {"smiles": "Cc1ccc(N2C(=O)NC(=O)/C(=C/C=C/c3ccco3)C2=O)cc1", "Potency": "inconclusive: 5.01 µM [inhibitor, full curve]"}, {"smiles": "COc1cccc(NP(=O)(Oc2ccccc2)Oc2ccccc2)c1", "Potency": "inconclusive: 0.794 µM [inhibitor, single point]"}, {"smiles": "Cc1ccnc(NS(=O)(=O)c2ccc(N=Cc3c(O)n(C)c(=O)n(C)c3=O)cc2)n1", "Potency": "inactive"}, {"smiles": "C=CCN1C(=O)NC(=O)/C(=C\\c2ccc(-c3ccccc3[N+](=O)[O-])o2)C1=O", "Potency": "inactive"}, {"smiles": "COc1ccc(C2SCC(=O)Nc3c2c(=O)[nH]n3C2CCCCCC2)cc1", "note": "(centres undefined)", "Potency": "inactive"}, {"smiles": "COc1ccc(N(C)S(=O)(=O)c2ccc3c(c2)oc(=O)n3C)cc1", "Potency": "inconclusive: 3.16 µM [inhibitor, single point]"}, {"smiles": "Oc1ccc2c3c1OC1c4[nH]c5ccccc5c4C[C@@]4(O)C(C2)N(CC2CC2)CC[C@]314", "note": "(some centres undefined)", "Potency": "inconclusive: 39.8 µM [inhibitor, single point]"}, {"smiles": "CN1CCC(C)(O)C2CCCCC21", "note": "(centres undefined)", "Potency": "inconclusive: 0.316 µM [inhibitor, full curve]"}, {"smiles": "Nc1c(C(=O)NCCN2CCOCC2)c2nc3ccccc3nc2n1Cc1ccccc1", "Potency": "inactive"}, {"smiles": "COc1ccc2[nH]c(C)c(CCNCc3cn(C)c4ccccc34)c2c1", "Potency": "inconclusive: 35.5 µM [inhibitor, single point]"}, {"smiles": "Cc1nc2c(=O)n(C)c(=O)nc-2n(C)n1", "Potency": "active: 0.112 µM"}, {"smiles": "O=c1[nH]c(=O)n(Cc2ccc(F)cc2)c(O)c1C=NCc1cccnc1", "Potency": "inactive"}, {"smiles": "O=C(c1ccc(CS(=O)(=O)c2ccccc2)o1)N1CCC2(CC1)OCCO2", "Potency": "inconclusive: 22.4 µM [inhibitor, partial curve]"}, {"smiles": "C[C@@H]1O[C@@H](Oc2c(-c3ccc(O)c(O)c3)oc3cc(O)cc(O)c3c2=O)[C@H](O)[C@H](O)[C@H]1O", "Potency": "inconclusive: 20 µM [inhibitor, single point]"}, {"smiles": "COc1ccc(/C=C2/C(=O)N(Cc3ccco3)C(=O)N(C(C)C)C2=O)cc1", "Potency": "inconclusive: 35.5 µM [inhibitor, single point]"}, {"smiles": "O=C1NC(=O)N(Cc2ccccc2)C(=O)/C1=C\\N1CCCc2ccccc21", "Potency": "inconclusive: 25.1 µM [inhibitor, partial curve]"}, {"smiles": "O=C1NC(=O)N(c2ccccc2)C(=O)/C1=C\\c1ccc([N+](=O)[O-])o1", "Potency": "active: 3.16 µM"}, {"smiles": "Cc1ccc(N2C(=O)NC(=O)/C(=C\\c3ccoc3)C2=O)cc1", "Potency": "inconclusive: 35.5 µM [inhibitor, single point]"}, {"smiles": "CN(C)C(Cc1ccc(Cl)cc1)C(=O)c1ccccc1", "note": "(centres undefined)", "Potency": "inactive"}, {"smiles": "Cc1cccc(-n2c(/C=C/c3ccc([N+](=O)[O-])o3)nc3ccccc3c2=O)c1", "Potency": "inconclusive: 39.8 µM [inhibitor, partial curve]"}, {"smiles": "Cc1c(C)c2ccc(OCC(=O)N3C[C@H]4C[C@@H](C3)c3cccc(=O)n3C4)cc2oc1=O", "Potency": "inconclusive: 5.62 µM [inhibitor, single point]"}, {"smiles": "CCOc1ccc2nc(N=Nc3c(O)[nH]c(=S)[nH]c3=O)sc2c1", "Potency": "active: 7.94 µM"}, {"smiles": "Cc1ccc(-n2c(C)cc(/C=C3/C(=O)NC(=O)N(Cc4ccco4)C3=O)c2C)cc1", "Potency": "inconclusive: 28.2 µM [inhibitor, partial curve]"}]}]}
